# From PubChem BioAssay (NCATS)
# “And” between values parts separate entries of the source, which are not always exact repeats. Identical values can stand only once. Inconclusive means that the source gave no clear call. Such entries were picked first, then a sample of the others. Where the call is inconclusive, the potency comes from a doubtful curve fit. The source made the active and inactive calls. Calls follow the shape of the dose curve; as a rule, active = well fitted curve in the direction sought with a large enough effect; inconclusive = small, poorly fitted or top-dose-only effect, or another doubt; inactive = no such curve, though single readings can be large; an effect the other way counts as inactive or inconclusive. Where a SMILES comes first, the peptide text is derived from it. Residues, ends and D or L forms follow the SMILES beside them. [ ]: non-standard residue; d: D form. The star is where a group is joined. Sta = CC(C)C[C@H](N)[C@@H](O)CC(=O)O; Isovaleryl = CC(C)CC(=O)*
# How the values were obtained:
# WaGa = experiment: qHTS assay to identify novel small-molecules to repurpose for Merkel cell carcinoma treatment (AID 1296009); settings: MCC and control cell lines, CellTiter-Glo viability, 72 h; series mostly up to 46 µM; also: nearly all actives have a fitted effect of over 60% in size
# Outline: (§1)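 Cells were incubated with compound for 72 hr at 37 degree celsius before CellTiter-Glo addition. Luminescence was normalized with no-cell wells as full cytotoxicity and DMSO as baseline.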
# CAOV3 = experiment: Primary qHTS to identify gynecologic anti-cancer compounds using libraries of approved drugs and bioactive compounds (AID 1345084); settings: Gynecologic cancer cell panel viability, ATPlite luminescence, 48 h; series mostly up to 57.5 µM; also: nearly all actives have a fitted effect of over 55% in size
# Outline: (§2)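 Measured: luminescence after ATPlite addition (15 min, RT). Exposure: 48 h, 37 C, 5% CO2.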
# UISO = experiment: qHTS assay to identify novel small-molecules to repurpose for Merkel cell carcinoma treatment (AID 1296009); settings: MCC and control cell lines, CellTiter-Glo viability, 72 h; series mostly up to 46 µM; also: nearly all actives have a fitted effect of over 60% in size
# Outline: as §1
# Es-2 = experiment: Primary qHTS to identify gynecologic anti-cancer compounds using libraries of approved drugs and bioactive compounds (AID 1345084); settings: Gynecologic cancer cell panel viability, ATPlite luminescence, 48 h; series mostly up to 57.5 µM; also: nearly all actives have a fitted effect of over 55% in size
# Outline: as §2
# CASKI = experiment: as above; settings: Gynecologic cancer cell panel viability, ATPlite luminescence, 48 h; series mostly up to 57.5 µM
# Outline: as §2
# HeLa = experiment: as above; settings: Gynecologic cancer cell panel viability, ATPlite luminescence, 48 h; series mostly up to 57.5 µM
# Outline: as §2
# C33A = experiment: as above; settings: Gynecologic cancer cell panel viability, ATPlite luminescence, 48 h; series mostly up to 57.5 µM
# Outline: as §2
# Potency is read from the fitted curve at half-maximal effect; tags tell the direction and shape of the fitted curve.
smiles,measurement,setting,value
CCN(CC)CCOc1ccc(C(=C(Cl)c2ccccc2)c2ccccc2)cc1,Potency,WaGa,inactive
CC(S)C(=O)NCC(=O)O (configuration not stated),Potency,WaGa,inactive
CNC(=O)[C@H](Cc1ccccc1)NC(=O)[C@H](CC(C)C)[C@H](CSc1cccs1)C(=O)NO,Potency,WaGa,"inconclusive: 9.35 µM [inhibitor, partial curve]"
CC(=O)OC1C(C)OC(Oc2c(-c3ccc(O)cc3)oc3cc(O)cc(O)c3c2=O)C(O)C1OC(C)=O (configuration not stated),Potency,WaGa,"inconclusive: 23.5 µM [inhibitor, single point]"
CCC1=C(C)CN(C(=O)NCCc2ccc(S(=O)(=O)NC(=O)NC3CCC(C)CC3)cc2)C1=O (configuration not stated),Potency,WaGa,inactive
same,Potency,CAOV3,"inactive and inconclusive: 6.31 µM [cytotoxic, single point]"
N[C@@H](Cc1cc(I)c(Oc2cc(I)c(O)c(I)c2)c(I)c1)C(=O)O,Potency,UISO,"inconclusive: 11.9 µM [inhibitor, partial curve]"
same,Potency,WaGa,"inconclusive: 29.9 µM [inhibitor, single point]"
same,Potency,Es-2,inactive
Cc1cccc(-c2nn(C(=S)Nc3ccccc3)cc2-c2ccnc3ccccc23)n1,Potency,WaGa,"inconclusive: 13.2 µM [inhibitor, partial curve, poor fit]"
CC1(C)C(=O)N(CCN2CCC(C(=O)c3ccc(F)cc3)CC2)c2ccccc21,Potency,WaGa,inactive
Cc1cc(=O)c2c(O)c3c(O)cc(=O)c4c3c3c(cc(O)c1c23)C(C)(C)C=4O,Potency,UISO,"inactive and inconclusive: 20.9 µM [inhibitor, single point]"
same,Potency,CAOV3,active: 4.47 µM
same,Potency,CASKI,active: 2 µM
same,Potency,Es-2,active: 3.16 µM
same,Potency,HeLa,active: 2.24 µM
CCCN[C@H]1CCc2nc(N)sc2C1,Potency,WaGa,inactive
same,Potency,CAOV3,inactive
NC(=O)c1ccc(I)c([N+](=O)[O-])c1,Potency,WaGa,inactive
Cn1cc(-c2ccc3nnc(C(F)(F)c4ccc5ncccc5c4)n3n2)cn1,Potency,WaGa,inactive
COc1nccc(-c2c(-c3ccc(F)cc3)ncn2C2CCC(O)CC2)n1 (configuration not stated),Potency,WaGa,"inconclusive: 16.6 µM [inhibitor, partial curve]"
same,Potency,CAOV3,inactive
Cn1c(=O)c(F)c(Nc2ccc(I)cc2F)c2c(=O)n(C[C@@H](O)CO)cnc21,Potency,WaGa,inactive
O=c1cc(-c2ccc(O)c(O)c2)oc2cc(O)cc(O)c12,Potency,WaGa,"inconclusive: 18.7 µM [inhibitor, partial curve]"
O=C(O)c1ccc(-c2cc3cccnc3c(-c3ccc4nonc4c3)n2)cc1,Potency,WaGa,"inconclusive: 26.4 µM [inhibitor, single point]"
Cc1cccc(-c2[nH]ncc2-c2ccc3ncccc3n2)n1,Potency,WaGa,"inconclusive: 2.35 µM [inhibitor, full curve, poor fit]"
COc1cc2nc(N3CCN(C(=O)c4ccco4)CC3)nc(N)c2cc1OC,Potency,UISO,"inconclusive: 10.3 µM [inhibitor, single point]"
same,Potency,WaGa,active: 20.9 µM
same,Potency,CAOV3,"inconclusive: 17.8 µM [cytotoxic, single point]"
same,Potency,Es-2,"inconclusive: 12.6 µM [cytotoxic, partial curve, poor fit]"
CN(N=O)C(=O)N[C@H]1C(O)OC(CO)[C@@H](O)[C@H]1O (some centres not stated),Potency,WaGa,inactive
O=c1c(O)c(-c2cc(O)c(O)c(O)c2)oc2cc(O)cc(O)c12,Potency,WaGa,inactive
C[C@H]1C[C@@H]2[C@@H]([C@@H](O)C[C@@]3(C)[C@H]2CC[C@]3(O)C(=O)CO)[C@@]2(C)C=CC(=O)C=C12,Potency,WaGa,inactive
CCC(C)n1ncn(-c2ccc(N3CCN(c4ccc(OC[C@H]5CO[C@](Cn6cncn6)(c6ccc(Cl)cc6Cl)O5)cc4)CC3)cc2)c1=O (some centres not stated),Potency,UISO,inactive
same,Potency,C33A,"inconclusive: 3.98 µM [cytotoxic, single point]"
same,Potency,CAOV3,"inconclusive: 3.16 µM [cytotoxic, single point]"
same,Potency,CASKI,inactive
Nc1ncnc2c1ncn2[C@@H]1O[C@H](CO)C[C@@H]1O,Potency,WaGa,active: 14.8 µM
CC(C)CC(=O)N[C@H](C(=O)N[C@H](C(=O)N[C@@H](CC(C)C)[C@@H](O)CC(=O)N[C@@H](C)C(=O)N[C@@H](CC(C)C)[C@@H](O)CC(=O)O)C(C)C)C(C)C (Isovaleryl-VV[Sta]A[Sta]-OH),Potency,WaGa,inactive
CC[C@@]1(O)C(=O)OCc2c1cc1n(c2=O)Cc2cc3cc(O)ccc3nc2-1,Potency,WaGa,active: 0.0187 µM
same,Potency,CAOV3,active: 0.355 µM
same,Potency,CASKI,active: 0.398 µM
same,Potency,Es-2,active: 0.355 µM
same,Potency,HeLa,"inconclusive: 14.1 µM [cytotoxic, partial curve]"
COc1cc(F)c(F)c(Nc2ccc(I)cc2F)c1NS(=O)(=O)C1(C[C@H](O)CO)CC1,Potency,CAOV3,"inconclusive: 39.8 µM [cytotoxic, single point]"
same,Potency,Es-2,"inconclusive: 2.24 µM [cytotoxic, full curve]"
O=C1N(c2ccccc2)c2ccccc2C1(Cc1ccncc1)Cc1ccncc1,Potency,WaGa,inactive
same,Potency,CASKI,"inconclusive: 0.631 µM [cytotoxic, full curve, poor fit]"
CC(C)(OCc1nn(Cc2ccccc2)c2ccccc12)C(=O)O,Potency,CAOV3,"inconclusive: 15.8 µM [rising, partial curve]"
COc1ncnc(NS(=O)(=O)c2ccc(N)cc2)c1OC,Potency,CAOV3,inactive
COc1c(O)cc2c(c1O)[C@@H]1O[C@H](CO)[C@@H](O)[C@H](O)[C@H]1OC2=O,Potency,C33A,"inconclusive: 3.55 µM [rising, partial curve, poor fit]"
Cc1ccc(Nc2cc(-c3cccc(N4C(=O)c5ccccc5C4=O)c3)ncn2)cc1NS(C)(=O)=O,Potency,CAOV3,inactive
Cc1noc(NS(=O)(=O)c2ccc(N)cc2)c1C,Potency,CAOV3,"inconclusive: 22.4 µM [rising, single point]"
Nc1cc(C(Cl)=C(Cl)Cl)c(S(N)(=O)=O)cc1S(N)(=O)=O,Potency,CASKI,inactive
O=C(O)c1cc(=O)[nH]c(=O)[nH]1,Potency,Es-2,inactive
CC1(C)[C@H](C(=O)O)N2C(=O)C[C@H]2S1(=O)=O,Potency,CAOV3,inactive
C#CCN[C@@H]1CCc2ccccc21,Potency,HeLa,inactive
CC(C)(C)OC(=O)N[C@H]1CCCCCC=C[C@@H]2C[C@@]2(C(=O)NS(=O)(=O)C2CC2)NC(=O)[C@@H]2C[C@@H](OC(=O)N3Cc4cccc(F)c4C3)CN2C1=O,Potency,CAOV3,inactive
N#C[C@H]1C[C@H]2C[C@@H]2N1C(=O)[C@@H](N)C12CC3CC(CC(O)(C3)C1)C2,Potency,CAOV3,"inconclusive: 39.8 µM [cytotoxic, single point]"
same,Potency,CASKI,"inconclusive: 39.8 µM [cytotoxic, single point]"
same,Potency,Es-2,"inconclusive: 39.8 µM [cytotoxic, single point]"
same,Potency,HeLa,"inconclusive: 39.8 µM [cytotoxic, single point]"
Cc1nc2c([nH]1)CCN(C(=O)c1ccc(NC(=O)c3ccccc3-c3ccccc3)cc1)c1ccccc1-2,Potency,CASKI,inactive
CCCCOc1ccc(C(=O)Nc2ccc(F)cc2F)cc1,Potency,CASKI,inactive
COC(=O)[C@H](Cc1ccccc1)NC(=O)[C@@H](N)CC(=O)O (H-Asp-Phe-OMe),Potency,CAOV3,inactive
CC(COc1ccccc1)N(CCCl)Cc1ccccc1 (configuration not stated),Potency,Es-2,inactive
O=C(NC1CCOCC1)c1ccc(-c2cc(-c3cn[nH]c3-c3ccccn3)ccn2)cc1,Potency,CASKI,inactive
same,Potency,Es-2,inactive
O=C(Nc1cccc(Br)c1)c1cccc(S(=O)(=O)N2CCCCCC2)c1,Potency,C33A,"inconclusive: 11.2 µM [cytotoxic, partial curve]"
same,Potency,CASKI,"inconclusive: 31.6 µM [cytotoxic, single point]"
same,Potency,Es-2,"inconclusive: 20 µM [cytotoxic, single point]"
CCN1C[C@H](C)n2c(c(O)c3c(=O)n(Cc4ccc(F)c(Cl)c4)nc(C(=O)NC)c32)C1=O,Potency,CAOV3,"inconclusive: 0.141 µM [rising, single point]"
same,Potency,Es-2,"inconclusive: 7.08 µM [cytotoxic, single point]"
same,Potency,HeLa,"inconclusive: 25.1 µM [rising, partial curve, poor fit]"
NC(=O)c1cnc(-c2ccc(C3(N)CCC3)cc2)c(-c2ccccc2)c1,Potency,WaGa,inactive
same,Potency,CAOV3,"inconclusive: 15.8 µM [cytotoxic, partial curve, poor fit]"
same,Potency,CASKI,"inconclusive: 3.55 µM [cytotoxic, partial curve, poor fit]"
Cn1c(=O)c2[nH]cnc2n(C)c1=O,Potency,C33A,inactive
same,Potency,CAOV3,inactive
Cc1nc2n(c(=O)c1CCN1CCC(c3noc4cc(F)ccc34)CC1)CCCC2,Potency,C33A,"inconclusive: 22.4 µM [cytotoxic, single point]"
same,Potency,CAOV3,inactive
c1cnc2cc3c(cc2n1)C1CNCC3C1,Potency,CAOV3,"inconclusive: 39.8 µM [cytotoxic, single point]"
Nc1nc2c(ncn2COCCO)c(=O)[nH]1,Potency,CASKI,"inconclusive: 28.2 µM [rising, partial curve]"
O=C(NC(Cc1cc(=O)[nH]c2ccccc12)C(=O)O)c1ccc(Cl)cc1 (configuration not stated),Potency,CAOV3,inactive
c1ccc2c(Oc3nc(Nc4ccc(N5CCOCC5)cc4)c4ncn(C5CCCCC5)c4n3)cccc2c1,Potency,CAOV3,inactive
CC1CCC(C(=O)N(c2cc(C#CC(C)(C)C)sc2C(=O)O)C2CCC(O)CC2)CC1 (configuration not stated),Potency,WaGa,inactive
same,Potency,CAOV3,inactive
same,Potency,CASKI,"inconclusive: 28.2 µM [rising, partial curve, poor fit]"
same,Potency,Es-2,inactive
CNc1nc(Nc2ccc(C(=O)N3CCOCC3)cc2OC)ncc1Cl,Potency,CAOV3,"inconclusive: 39.8 µM [cytotoxic, single point]"
same,Potency,CASKI,inactive
O=C(N[C@H](CO)[C@H](O)c1ccc([N+](=O)[O-])cc1)C(Cl)Cl,Potency,CAOV3,"inconclusive: 0.282 µM [cytotoxic, full curve, poor fit]"
COc1nc(-c2ccc3c(c2)OCO3)n(-c2ccc(NC(=O)CSc3ccccc3)cc2)n1,Potency,CASKI,inactive
same,Potency,HeLa,"inconclusive: 31.6 µM [cytotoxic, single point]"
Cc1cc2c(cc1C1(c3ccc(C(=O)O)cn3)CC1)C(C)(C)CCC2(C)C,Potency,CASKI,"inconclusive: 39.8 µM [cytotoxic, single point]"
same,Potency,Es-2,"inconclusive: 39.8 µM [cytotoxic, single point]"
same,Potency,HeLa,"inconclusive: 39.8 µM [cytotoxic, single point]"
